The record followed here is paper PMC12136788.

Some of the results follow.

The labels stand for the following.
T1: UNK ZnF1-6 (called full-length) (human, UniProt Q9C0B0 30-357)
T1 sequence: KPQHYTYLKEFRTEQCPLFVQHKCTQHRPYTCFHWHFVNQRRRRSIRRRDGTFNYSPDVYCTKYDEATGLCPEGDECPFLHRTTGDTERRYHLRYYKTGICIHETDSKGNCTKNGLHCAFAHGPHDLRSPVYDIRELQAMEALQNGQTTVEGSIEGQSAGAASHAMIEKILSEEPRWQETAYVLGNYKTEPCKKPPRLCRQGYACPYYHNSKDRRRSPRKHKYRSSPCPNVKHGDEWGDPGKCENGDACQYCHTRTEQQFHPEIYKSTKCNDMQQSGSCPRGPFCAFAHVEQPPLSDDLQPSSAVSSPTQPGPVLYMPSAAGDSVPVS

B1: chr7:92612324:92612425:-|3pUTR|ENSG00000105810|msi1|total|mutant (ssRNA)
RNA: GGGAGUUCUACAGUCCGACGAUCAUCCAACACAAGCAGUCUUGCCGUCCGGGCAUUUUGAAGCAGACCGCCGAGUAAGAACUCCGUGACUACAGCUUAUUCUUCUGUAACAUAUGGUUUCAAACAUCUUUGCCAAAAGCUAAGCAACAGAGGAUUGAGCAUCA
B2: chr8:27776916:27777017:+|CDS|ENSG00000171320|unk|FALSE|unique (ssRNA)
RNA: GGGAGUUCUACAGUCCGACGAUCAAACCACAAGUUACACUCCAGGGUGGAGCAGCAUUUUUUGUUAGAAAAAAAUCUUCUCUUAGAAAAUCGUCCCUGGAAAAUGAGCCGUCACUGGGACGCACCCAAAAGAGUAAAUCAGAACAACAGAGGAUUGAGCAUCA
B3: ENSG00000198589:be:win_151|CDS|ENSG00000198589|bound_else_gene|NA|bound_elsewhere_windowed (ssRNA)
RNA: GGGAGUUCUACAGUCCGACGAUCUUGACCGGUUUGGUUGAAGUUGGAGAAGUAUCCAAUAGGGAUAUUGUAGAAACUGUCUUUAACCUGUUGGUAGGAGGACAGUUUGAUCUGGAAAUGAAUUUCAUUAUCCAAGAAGGUGAGCAACAGAGGAUUGAGCAUCA
B4: chr2:216122066:216122255:+|CDS|ENSG00000079246|unk|total|mutant (ssRNA)
RNA: GGGAGUUCUACAGUCCGACGAUCCCAUGGGCCUUCCUUUCCACUAAAAGGAAUUACCGAACAGCAAAAAGAAGGUCUUGAGACCGUGAAAAUGGUGAUGAUAUCUUCCGAAGGUGAAGAUGGGUUGGAUGAAAUUUAUUCAUUCAACAGAGGAUUGAGCAUCA
B5: chr6:113953301:113953428:-|CDS|ENSG00000196591|unk|FALSE|unique (ssRNA)
RNA: GGGAGUUCUACAGUCCGACGAUCAAAAACCAAAACUUAUGGAUUUGUUUUCAGGUAUCAUCAGAGAGUCUUAUAUAUUGAUAUAGAUAUUCAUCAUGGUGAUGGUGUUGAAGAAGCUUUUUAUACAACAGAUCGUGUAAUGACCAACAGAGGAUUGAGCAUCA
B6: chr21:25881503:25881610:-|3pUTR|ENSG00000142192|msi1_unk|total|mutant (ssRNA)
RNA: GGGAGUUCUACAGUCCGACGAUCACAAACCCGUUUUAUGAUUUACUCAUUAUCGCCUUUUGACAGCUGUGCUGUAACACAAGCCGAUGCCUGAACUUGAAUUAAUCCACACAUCAGUAAUGUAUUCUAUCUCUCUUUACAUUUCAACAGAGGAUUGAGCAUCA
B7: chr13:113097702:113097803:+|3pUTR|ENSG00000126217|unk|FALSE|unique (ssRNA)
RNA: GGGAGUUCUACAGUCCGACGAUCAAAGAAAAUACAAAGAUGCAGUUUCUGCAGGGUGUGGCGUGGACCAGUGCUGCCGACCAUAGCUCAGAGAGCCCUGCCCCUGCCUCACUGCACUGCAGCCUCCUCGGAGGCCGCACCUCCCAACAGAGGAUUGAGCAUCA
B8: chr1:6525536:6525637:-|3pUTR|ENSG00000162408|msi1|FALSE|unique (ssRNA)
RNA: GGGAGUUCUACAGUCCGACGAUCACAGUUUGUGUGCCAUUAAAACAGAGAUUCCUCAGAAAGUUCUUCAGGGACCUGGUUAUUAGAAUCAGGAUAAAAAUAAGGAAACUGGGGCCAUUACAAUGUACCGAGAAGGAAGGAAGACAACAGAGGAUUGAGCAUCA
B9: ENSG00000153989:stop:overlap|stop_codon|ENSG00000153989|stop_codon|NA|stop_codon (ssRNA)
RNA: GGGAGUUCUACAGUCCGACGAUCAUGAGGACUUUUUCUCUGCCCUUCGUCAAUAUGCAGCCUGUGAACAGCGUCUGGGAAAGUAGUGGUCAUUGGUUGCAUAAUUUGAUUUGAGGCUUGUGGAGGAAAGGAACCAAGUGACUCCAACAGAGGAUUGAGCAUCA
B10: chr1:157676480:157678709:-|three_prime_utr|ENSG00000160856|control|control|control (ssRNA)
RNA: GGGAGUUCUACAGUCCGACGAUCAAGCACUGUGUUAUUUUCACAGUGGAGACACGUGGCAAGGCAGGAGGGCCCUCAGCUCCUAGGGCUGUCGAAUAGAGGAGGAGAGAGAAAUGGUCUAGCCAGGGUUACAAGGGCACAAUCCAACAGAGGAUUGAGCAUCA
B11: chr7:2728618:2728646:-|3pUTR|ENSG00000146535|msi1_unk|total|mutant (ssRNA)
RNA: GGGAGUUCUACAGUCCGACGAUCUUUAAUUUCACUGUUAAUCCUUAUUGUCUUUUUUAUUAAGAUGUUGGAAAAGCAGGAGGCCGUUGUGCCUCAAUUAUUGCAAAAAUGUAACAAUAAAGUUCCUCAAAAUAAGAUCUGUUCCAACAGAGGAUUGAGCAUCA
B12: chrX:48578139:48578249:+|3pUTR|ENSG00000102317|msi1_unk|FALSE|overlapping (ssRNA)
RNA: GGGAGUUCUACAGUCCGACGAUCGUAUCAAGAACAUGAUUAUCCAGCGGUAUUUUCUAAUUCAGAUCAUCAAACUGAUUAUAUAGAAGAGUUGGCUUUAAAAUGUUUGCAAAUGUCUUUUUUUUUUUAAUACUGGAAGAAAAACAACAGAGGAUUGAGCAUCA
B13: chr4:2944067:2944171:-|CDS|ENSG00000087269|unk|FALSE|unique (ssRNA)
RNA: GGGAGUUCUACAGUCCGACGAUCGGCUUUGUCCCAGAGGUUUAUACCUGAGCUUAUUAAUUUUCUUCUUGGGAUUCUUUACAUAGCAACUCCAAACAAAGCAAGCCAAGGUGAGUUGAUUUGAGGGAGGUUCCUACAAAUAUGCAACAGAGGAUUGAGCAUCA
B14: chr22:38864602:38864703:-|3pUTR|ENSG00000183741|msi1|FALSE|bound_elsewhere (ssRNA)
RNA: GGGAGUUCUACAGUCCGACGAUCGCUGUGCUGCCAUGGGCCCCUCCCUCAGAAGCACGUUGGCAGGAGGCCGAUCAGAACCCUAGCGCCUUUGGUCCUAAGAAUGGGAGGCUGCCUUCCUUCCCAAUCUCCCUGCCAGGGCCCCAACAGAGGAUUGAGCAUCA

This test addresses T1, UNK ZnF1-6 (called full-length). Nature of the test: nsRBNS (natural sequence RNA bind-n-seq); RBNS binding buffer (assumed for nsRBNS): 25 mM Tris pH 7.5, 150 mM KCl, 3 mM MgCl2, 0.01% Triton X-100, 500 ug/ml BSA, 20 U/ml SUPERase-In, 4 C; UNK is unkempt and MSI1 is Musashi-1; names of the RNAs are library labels; protein concentration not given here; high values mean tight binding.
In the case of B1, the binding signal was 0.871 enrichment R.

The molecule B2 had a binding signal of 0.522 enrichment R.

Molecule B3 gave a binding signal of 0.347 enrichment R.

B4 had a binding signal of 0.46 enrichment R.

As to B5, the binding signal was 0.702 enrichment R.

The molecule B6 yielded a binding signal of 0.402 enrichment R.

Molecule B7 gave a binding signal of 0.662 enrichment R.

In turn, B8 returned a binding signal of 0.685 enrichment R.

In turn, B9 showed a binding signal of 0.746 enrichment R.

B10 displayed a binding signal of 1.07 enrichment R.

The molecule B11 returned a binding signal of 0.612 enrichment R.

Regarding B12, the binding signal was 0.718 enrichment R.

In turn, B13 returned a binding signal of 0.644 enrichment R.

The molecule B14 came in with a binding signal of 0.904 enrichment R.
